Laboratory results reported in the supplement of paper PMC10126150.
Values marked as one replicate rest on one cluster of the flow cell; about a third of the high ones do not repeat.

test system: ATP; test: switch fluorescence ratio, 500 uM ATP over buffer (Cy3 cluster intensity, sum of 5 cycles each) (fold (ratio)); higher = stronger signal-on switching upon ATP binding; sequences stand for … in TCGTCGGCAGCGTCAGATGTGTATAAGAGACAGTTTTTTTTTTTTTTTTTTTTTTTTT…TC; settings: aptamer strand: ATP DNA aptamer (quencher-CACCTGGGGGAGTATTGCGGAGGAAGG + anchor), 100 nM annealed; ATP concentration: 500 uM; one replicate
How it was run: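 The quencher-labelled ATP aptamer, at 100 nM, was annealed to Cy3-labelled switching-strand clusters on a modified Illumina MiSeq flow-cell. The clusters were imaged in selection buffer, then after 15 min with 500 uM ATP at 22 °C, and this buffer/ATP cycle ran five times with NaOH stripping and re-annealing between runs. Per-cluster fluorescence ratios, summed target-cycle over summed buffer-cycle Cy3 intensity, were averaged per switch-domain sequence. Clusters outside 100-1000 RFU were excluded.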
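Note: ATP exposure 15 min at 22 °C before imaging.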

| Sequence | switch fluorescence ratio |
| --- | --- |
| TTTTTGCAA | 2.11 |
| TTTTTGCCGT | 0.998 |
| TTTTTGGAT | 0.989 |
| TTTTTGTGCC | 1.07 |
